Results on 167 variants are retold here after the RNAGym collection of RNA variant scans (doi:10.1093/nar/gkz1192).

B1: CPEB3 Ribozyme (parent)
chain: UAACAGGGGGCCACAGCAGAAGCGUUCACGUCGCAGCCCCUGUCAGAUUCUGGUGAAUCUGCGAAUUCUGCUGUAUAUCUC

The source gives no read counts; variants with many changes may rest on few reads.

The data set covers variants of B1. The data set is described as follows: self-cleavage, relative activity (ratio to wild type); higher = more cleavage; in vitro, sequencing. The method, boiled down:
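Relative activity was defined as the cleaved/total read fraction for a variant divided by the same fraction for the unmutated ribozyme. CPEB3 self-cleaving ribozyme libraries were made by rounds of error-prone PCR, barcoded, and transcribed in vitro with T7 RNA polymerase for 5 hours at 37°C, and cleavage ran through transcription plus a 15 min DNase I step before EDTA. Illumina sequencing of template-switched reverse transcripts gave the reads, and DNA sequencing mapped the barcodes. Averages come from three batches, using variants with at least 5 reads.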
Turning to U1A C11U A20G, the self-cleavage stood at 0.34.
As to U1A U26C A35U A45U U51C A56G, the self-cleavage stood at 0.13.
The same measure for U1A C11U U31C U74A: 0.67; for U1A U26C U31C U72A: 0.21.
In the case of U1A G10A C23A A28G U72A U80C, the self-cleavage was determined as 0.06.
As to U1A U41C U49C U51C A57G U67C, the self-cleavage stood at 0.2.
As to U1A C38G U49C G70U, the self-cleavage is 0.08.
Turning to U1C A5U A28G C29U U31A C50U U58C, the self-cleavage came to 0.18.
Turning to U1C A2G A20G U41A U49C U60C A64G, the self-cleavage amounted to 0.29.
On to U1A U41A U48C, for which the self-cleavage came out at 0.31.
For U1C A2U G6U A21G U25C, the self-cleavage was found to be 0.38.
For U1A U49C A64G U80C the value was 0.28; for U1A G19U U41C G42C U43C, 0.27; for U1C A5U A21G U25A G53C U72C, 0.3.
On to U1A C17U U31C U69C, for which the self-cleavage amounted to 0.19.
The same measure for U1A G9A A57G: 0.24; for U1C A5G U41A A45U A64U A65C U69A: 0.23.
With U1C A5U A56U, the self-cleavage came out at 0.63.
Regarding U1A U26C U48C G53A U80A, the self-cleavage was determined as 0.14.
For U1C A5U G33A A75G the value was 0.26.
For U1C A3G A21G U26C A35G G70U the value was 0.07; for U1A G6A C12A A13G U25C U41A G70A, 0.06; for U1A U25C A47G A65U U66C, 0.21.
U1A C12U A28G U41C A57G: the self-cleavage came out at 0.83.
For U1C A5G C27U U80C, the self-cleavage is 0.09.
For U1C A3U A18G A57G A64U the value was 0.1; for U1C A13C C27U A56G G63A A77C, 0.08; for U1C A3G A21G U41A, 0.56.
U1C A2G A15G A18G: the self-cleavage came out at 0.61.
Turning to U1A G8U A18G A64G, the self-cleavage worked out at 0.18.
Consider U1A G8A C14U C44A, for which the self-cleavage stood at 0.05.
On to U1C A2U U72A, for which the self-cleavage stood at 0.76.
Turning to U1A C11G U41C U48C U69C, the self-cleavage stood at 0.23.
For U1C A5U A15G U26C U51A A56G U60C the value was 0.08; for U1C A13C A35G C68A, 0.74; for U1A G33C U41A, 0.21.
The same measure for U1A U25C U31G U69C A75U U80C: 0.11.
Consider U1A G8U G10A U26C U60C U78C, for which the self-cleavage worked out at 0.31.
Take U1A U41C A65G: the self-cleavage stood at 0.56.
Take U1C A5G A13U A15G A47G U49A U80C: the self-cleavage was determined as 0.75.
As for U1A U26C A57G, the self-cleavage came to 0.39.
Turning to U1C A3G A45G A64G, the self-cleavage was 0.37.
With U1C A5U C37A U49C A57G, the self-cleavage worked out at 0.04.
For the variant U1A U41G U60C U66A A75G U76C, the self-cleavage stood at 0.06.
As to U1A G16A U41C U51C U69C C71U, the self-cleavage is 0.2.
As for U1C A2G A18U U51C A64G, the self-cleavage worked out at 0.15.
With U1C A3G C17U G53A, the self-cleavage was 0.4.
For U1A U60C U76C U78C the value was 0.34; for U1C A5U A28U, 1.06.
As to U1C A5G A13U U41C A45G U60A U69A, the self-cleavage came to 0.03.
As to U1A U25A U26G A65G, the self-cleavage is 0.14.
As to U1C A2U A21U A28G A45U A56G A75U, the self-cleavage turned out to be 0.04.
Consider U1C A2U A28U A56C, for which the self-cleavage is 0.23.
Take U1A G16C C39A U49A U72G: the self-cleavage worked out at 0.12.
On to U1A U25A A56U, for which the self-cleavage turned out to be 0.34.
Consider U1A C11G U48C U67C, for which the self-cleavage was found to be 0.12.
U1C A5C A20G A35G U48A A65G: the self-cleavage worked out at 0.14.
Regarding U1C A5G G9A A15G C39G, the self-cleavage was 0.06.
For U1A C12A A18G A20U U80A the value was 0.08.
For U1C A3G G9A A65G the value was 0.06; for U1C A3G A18U, 0.67.
Consider U1C A3G G33C U54G, for which the self-cleavage was 0.33.
As for U1A G6A G9A U48C U54C A64G U66C, the self-cleavage turned out to be 0.06.
For U1A G6U U67C U76A, the self-cleavage worked out at 0.16.
Consider U1C A5G A15G A18G A28G U48A U72G, for which the self-cleavage is 0.3.
Take U1A G10U A21G U31A U66G: the self-cleavage amounted to 0.02.
The same measure for U1A U41C U72C: 1.03.
Consider U1C A3G A20G A28G G33A A45U U48C, for which the self-cleavage was 0.05.
Consider U1A U25C A35G A47G, for which the self-cleavage was determined as 0.22.
For U1C A3G A13C C37A U80C, the self-cleavage was 0.1.
Regarding U1A U25A C38U C39A A65G A77G, the self-cleavage was 0.05.
U1C A2U A28G U60A G63A U80A: the self-cleavage amounted to 0.19.
The same measure for U1C A5U A35U G55A: 0.5; for U1C A5G A45U A64G U67G: 0.08; for U1A G10U A18G A21G A64G: 0.33.
With U1A C23G U31C A65G, the self-cleavage was 0.09.
For U1A G52A C68U, the self-cleavage was found to be 0.95.
For U1C A5G A13G U58C the value was 0.67; for U1A U25A U41A U54C U74A, 0.26; for U1A G16A U51C A57G, 0.16.
As to U1C A5G G9U A15U G16C A35G, the self-cleavage worked out at 0.43.
As for U1C A5U A47G, the self-cleavage came out at 0.7.
Regarding U1A C40U A65U U72A U80C, the self-cleavage was determined as 0.16.
U1C A3G C17U A28G A35C A64G U72A: the self-cleavage is 0.04.
For U1C A2U A3U G7C C34U A75G the value was 0.06; for U1C A2G C11G A57G, 0.11.
For U1A G10A U25C U51G U54C the value was 0.
U1A C11U A45G U48C U51C A65U U72A: the self-cleavage was found to be 0.06.
The same measure for U1C A2U A18U G33A G42C: 0.2.
As to U1C A2U A13U U54C U58C, the self-cleavage worked out at 0.17.
Take U1C A5C U25C U26A: the self-cleavage turned out to be 0.11.
Take U1C A3G A5U G36A U41A A45U U72A: the self-cleavage was 0.09.
As to U1C A2G U25C, the self-cleavage stood at 0.23.
For U1C A2C C12A A13G C44A A56G the value was 0.08; for U1A G30A A35C C40U A56C A75U, 0.1.
Turning to U1C A2G A5G A21C G33A U80C, the self-cleavage stood at 0.5.
Regarding U1A C32A U54A A56G U69A U78C, the self-cleavage turned out to be 0.14.
For U1A U41C U51A C62U U72C, the self-cleavage came out at 0.26.
Take U1C A5G A64U U74C U80C: the self-cleavage was found to be 0.13.
As to U1A C11U U41C, the self-cleavage was 0.58.
For U1A U41A U51G the value was 0.06; for U1C A3G A18U A20G U25A U26A C44U, 0.07; for U1A G9U A13G A56U U74A, 0.07.
The same measure for U1C A2U A28G U58C U80A: 0.25; for U1A U49C A64G: 0.3.
For U1A U25A A28G U69C the value was 0.25; for U1A U26C A28G A35G U54A, 0.19.
For U1A G8U U31G C50U U51G U60C, the self-cleavage came out at 0.09.
For U1A U26C A28G the value was 0.26.
For the variant U1A U72A U74A, the self-cleavage came to 0.93.
As for U1C A5G U25C G36A U54C U72C, the self-cleavage was 0.07.
For U1A U26C C38U G42A A45G, the self-cleavage was found to be 0.18.
In the case of U1A G6A A20G U31C C34U A64U U78C, the self-cleavage is 0.13.
Consider U1C A2U A20U A35U A75U, for which the self-cleavage was found to be 0.24.
U1C A5G U72G U74C U80C: the self-cleavage is 0.66.
Take U1A U26A U41A: the self-cleavage was determined as 0.08.
The same measure for U1C A5U A20G: 0.33; for U1A C37U U43A A64U: 0.15; for U1A G9A A15U A45C A57G: 0.06.
For the variant U1C A5G U26A A65G, the self-cleavage is 0.26.
For U1A C11G U58A, the self-cleavage turned out to be 0.24.
For U1C A2G C39A U43C U80A the value was 0.12.
As for U1A G7C U25C C39U U54A, the self-cleavage turned out to be 0.26.
For U1C A2U A45G, the self-cleavage is 0.49.
For the variant U1C A2U U43C U54C G61A A65G, the self-cleavage was 0.11.
For U1C A5U G7C U43C U48C U54C the value was 0.06.
In the case of U1A U31C A45C U72C, the self-cleavage was 0.34.
The same measure for U1C A2G U51C: 0.85.
U1A U48C A57G A64U A65U: the self-cleavage stood at 0.18.
For U1A C14U A45U G52A the value was 0.81; for U1C A13G A20G U78C, 0.42; for U1C A5G A35U U67C, 0.11.
Consider U1A C23U U25C, for which the self-cleavage was found to be 0.09.
On to U1C A5C A28G U41C A64G A65G A75U, for which the self-cleavage was found to be 0.35.
The same measure for U1C A2G G10A A35U U80C: 0.06; for U1A G7U U41C U43A U51C: 0.21; for U1A U43A U58C: 0.77.
As to U1A G10A G16U U31A U48C, the self-cleavage is 0.04.
Consider U1C A5G G6A A45U, for which the self-cleavage turned out to be 0.06.
For U1A G9C A15U U76C, the self-cleavage was 0.07.
For the variant U1C A5U A20U U31C, the self-cleavage was determined as 0.13.
On to U1C A2G U60C, for which the self-cleavage is 0.42.
For the variant U1C A5G A21U U26C C39U A56U U67C, the self-cleavage came to 0.18.
Consider U1A G9A U26C A47U U49A U72A, for which the self-cleavage was 0.16.
For the variant U1A U41C A56G U60A U72C, the self-cleavage was found to be 0.16.
For the variant U1C A3C C11U U31A U41C, the self-cleavage amounted to 0.53.
As to U1C A3G U31G, the self-cleavage worked out at 0.62.
With U1C A5U U25C U60C U72C, the self-cleavage was 0.08.
For U1A U25C U78C the value was 0.1.
On to U1C A5G U80C C81U, for which the self-cleavage was determined as 0.89.
With U1A U41A U54A U58C, the self-cleavage is 0.21.
Regarding U1A G8A G19C C38A U49C A75U, the self-cleavage stood at 0.04.
As to U1A G7C G8A A18U A65G U69A U74C, the self-cleavage is 0.06.
For U1C A5G U49G the value was 0.45.
With U1C A13C G24A, the self-cleavage amounted to 0.09.
For U1A U48C U60C the value was 0.17; for U1C A5U U48C U60A U66C, 0.17; for U1A G6A A56G, 0.42.
For U1A U41A U51G A64G the value was 0.72; for U1C A5U U26A U51G U58A U66C, 0.08.
In the case of U1C A3U A13U U66C, the self-cleavage was 0.23.
The same measure for U1C A2G G6A A15G A75G: 0.05; for U1C A5G U78C: 0.62; for U1A U25C G42C: 0.33.
Take U1A G9A A18G A21G U31A C32G: the self-cleavage was determined as 0.13.
With U1A U41C U74C, the self-cleavage was 1.08.
Turning to U1C A3G A20G U43C, the self-cleavage is 0.14.
